PubChem BioAssay AID1347073 (National Center for Advancing Translational Sciences (NCATS), 2019)
The campaign covered roughly 45,000 compounds. About 200 (0.44%) were called active. About 7% were inconclusive and are not listed. The call rests on the fitted dose curve; in most records, active means well fitted activation curve with a large enough effect; inconclusive means small, poorly fitted or top-dose-only effect; inactive means no such curve, though single readings can be large or run the other way. Some of the results follow.

assay: qHTS of TDP-43 Inhibitors: NCGC Sytravon Library Screen; conditions: yeast TDP-43 toxicity rescue, BacTiter-Glo growth, 24 h; series mostly up to 46.1 µM; growth rescue (activation): at the top concentration; further: 0% is about no effect; nearly all actives have a fitted effect of over 55% in size
How it was run: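 TDP-43-expressing yeast, pregrown in raffinose, seeded at OD600 0.02 in galactose medium with compound for 24 hr at 30 deg C. Growth read by BacTiter-Glo luminescence, so rescue of toxicity appears as activation.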

SMILES	growth rescue (activation)
O=C(CN1CCN(Cc2ccccc2)CC1)N/N=C/C=C/c1ccccc1[N+](=O)[O-]	inactive: 11.9%
O=C(Cn1cnnn1)NCc1ccccc1	inactive: 0.791%
Cc1c(C(=O)N/N=C/c2cccnc2)nnn1-c1nonc1N	inactive: 3.47%
Cc1ccc(S(=O)(=O)N2CCC[C@H]2C(=O)Oc2ccccc2)cc1	inactive: -5.95%
O=C(NCCN1CCOC1=O)C1CCC(=O)N(CCc2ccc(Cl)cc2)C1 (stereo not drawn)	inactive: -8.67%
CCC(C)Nc1nc2c(c(=O)[nH]c(=O)n2C)n1CCCc1ccccc1 (stereo not drawn)	inactive: 1.48%
O=C(CCc1c[nH]c2ccccc12)NCc1cccc(Cl)c1	inactive: -9.62%
O=C1CSc2ccc(C(=O)O)cc2N1	inactive: -7%
COc1ccc(NC(=O)Cn2c(=O)n(-c3cccc(C(F)(F)F)c3)c(=O)c3sccc32)cc1	inactive: 12.3%
O=C(CCS(=O)(=O)c1ccc(Cl)cc1)Nc1ccc(F)cc1	inactive: -0.889%
CC(C)N1C(=O)C(=O)N(CC(=O)N2c3ccccc3NC(=O)CC2C)C1=O (stereo not drawn)	inactive: 8.41%
CCN1CCN(C(=O)CSc2nc(N)cc(N)n2)CC1	inactive: -12.7%
C/C(=C\c1ccccc1)CN1CCC(C(=O)N2CCCCC2)CC1	inactive: -1.97%
Cc1cc(C)c(S(=O)(=O)/N=C2/C=C(SCC(=O)O)C(=O)c3ccccc32)cc1C	inactive: 8.67%
CC(=O)Nc1ccc(C(=O)CSc2nccc(=O)[nH]2)cc1	inactive: 3.31%
COc1cc(NC(=O)Cc2cccs2)c(C(=O)O)cc1OC	inactive: -9.97%
O=C(Oc1ccc(Cl)c2cccnc12)c1cccc([N+](=O)[O-])c1	inactive: 22.3%
Cc1nc2nc(CSc3nnc(C)s3)cc(=O)n2[nH]1	inactive: 4.9%
CCc1nc2c(OCc3ccc(C(F)(F)F)cc3)cccn2c1N(C=O)Cc1ccc(OC)cc1	inactive: 0.959%
CCOC(=O)/C(N=Nc1c(C)n(C)n(-c2ccccc2)c1=O)=C(\C)O	inactive: 10.2%
Cc1ccc(N=CC2=C(O)CC(c3cccc(Cl)c3)CC2=O)cc1 (stereo not drawn)	inactive: 5.87%
COc1ccc(NC(=O)CSc2nc(C)cs2)cc1	inactive: 15.3%

SMILES	growth rescue (activation)
CC(C)c1onc(C(=O)N2CCOCC2)c1[N+](=O)[O-]	inactive: 3.82%
Nc1n[nH]c(C(F)(F)F)c1-c1ccccc1	inactive: 3.03%
O=C(O)c1ccc(S(=O)(=O)NCC2CCCCC2)cc1	inactive: -4.66%
COc1ccc(N(CC(=O)NCc2ccc(Cl)cc2)S(=O)(=O)c2ccccc2[N+](=O)[O-])c(OC)c1	inactive: -3.36%
COCc1ccc(C(=O)N2CCCC(Nc3ccc(C(C)C)cc3)C2)s1 (stereo not drawn)	inactive: 35.8%
O=C([C@H](Cc1ccccc1)N1C(=O)c2ccccc2C1=O)N1CCOCC1	inactive: 21.5%
O=C(CC1NCCc2ccccc21)Nc1ccc(Cl)cc1 (stereo not drawn)	inactive: -0.565%
O=C(CNc1cccc(C(F)(F)F)c1)N/N=C/c1cn(-c2ccccc2)nc1-c1ccccc1	inactive: -17.4%
O=C(CN1CSCC1=O)N1CCN(S(=O)(=O)c2cc(C(F)(F)F)ccc2Cl)CC1	inactive: 24.8%
CCc1nc2c(OCCc3cccc(OC)c3)cccn2c1N(C)C(=O)c1cccs1	inactive: 9.62%
CC(=O)c1cccc(-c2ccnc3c2CC(C(=O)NCC2CC2)O3)c1 (stereo not drawn)	inactive: 7.31%
CCCC(=O)Nc1nc(C)c(C(C)=O)s1	inactive: 10.5%
Cc1ccc(CNC(=O)c2ccc(N(C)S(=O)(=O)c3ccccc3)cc2)cc1	inactive: 18.4%
O=C(COC(=O)[C@@H]1CCCN1S(=O)(=O)c1ccc(Cl)cc1)NCC(F)(F)F	inactive: 3%
CN(CC(=O)Nc1ccccc1C(=O)NC1CC1)Cc1ccccc1F	inactive: 5.18%
Cn1c(=O)c(=O)n(C)c2cc(S(=O)(=O)NCCOc3ccccc3Cl)ccc21	inactive: 8.94%
CCNC(=O)c1ccccc1SCc1ccccc1	inactive: 15.2%
COc1ccccc1C(=O)C1CCCN(Cc2cccc3nccnc23)C1 (stereo not drawn)	inactive: 3.58%
O=C(NC1CCCC1)c1cc(-c2ccc(Cl)cc2)on1	inactive: 27.5%
O=C(NN1C(=O)/C(=C/C=C/c2ccco2)SC1=S)c1ccccc1O	inactive: -12.9%
Cc1ccc(NC(=O)COC(=O)Cn2cnc3ccccc32)c(C)c1	inactive: 18.9%
CCCCN(CC)Cc1ccc(CNC(=S)Nc2c(C)cc(C)cc2C)o1	inactive: 7.85%

SMILES	growth rescue (activation)
CC1CCc2c(C(=O)Nc3ccc(OC(F)(F)F)cc3)csc2C1 (stereo not drawn)	inactive: 13.7%
CN(C(=O)COC(=O)c1cc(Br)c(Br)s1)C1CCS(=O)(=O)C1 (stereo not drawn)	inactive: -21.2%
O=C(N/N=C/c1cn(-c2cccs2)nc1-c1ccccc1)c1ccccc1Br	inactive: 6.7%
CCN(Cc1ccccc1)C(=O)c1nn(-c2ccc(OC)cc2)c(=O)c2c1c1ccccc1n2C	inactive: 12.6%
CC(=O)N1CCN(CC(=O)Nc2c(Cl)ccc(C)c2Cl)CC1	inactive: -4.41%
COc1cccc(CN2CCCC(C(=O)Nc3ccc(-c4cscn4)cc3)C2)c1 (stereo not drawn)	inactive: -5.49%
CCC1(C)Cc2ccccc2C(=S)N1 (stereo not drawn)	inactive: -14.5%
O=C(CN1C(=O)NC2(CCc3ccccc32)C1=O)NCc1cccc(C(F)(F)F)c1 (stereo not drawn)	inactive: 9.62%
C[n+]1c(/C=C/c2ccc3c(c2)OCO3)ccc2ccccc21	inactive: -4.83%
COc1ccc(C(CNC(=O)CN(C)S(=O)(=O)c2ccc(C)cc2)N2CCCC2)cc1 (stereo not drawn)	inactive: -2.09%
COC(=O)c1ccccc1N1CCS(=O)(=O)CC1	inactive: -5.82%
COc1ccc(-c2cc(-c3cc(C)ccc3O)[nH]n2)cc1	inactive: 7.89%
Cc1cc(C)n(-c2ccc(C(=O)OCC(=O)Nc3cc(Cl)ccc3[N+](=O)[O-])cc2)n1	inactive: -13.4%
CCc1nc2ccc(C(=O)NCCc3c[nH]c4ccccc34)cn2c1N(C)Cc1ccc(N(C)C)cc1	inactive: 6.12%
Cc1ccc(-n2nc(C(=O)NN)c(C)c(C#N)c2=O)cc1Cl	inactive: -8.17%
O=C(Nc1nc(-c2ccccc2)cs1)c1ccccc1NS(=O)(=O)c1ccc(F)cc1	inactive: -89.2%
CN1C(=S)N2CCCN2C1c1ccccc1 (stereo not drawn)	inactive: 9.4%
O=C(Nc1ccc(S(=O)(=O)N2CCCCC2)cc1)c1ccccc1F	inactive: 7.4%
COc1ccccc1C(=O)NCC(=O)OCC(=O)Nc1cccc(S(=O)(=O)N(C)C)c1	inactive: 14.6%
COc1cc(/C=N/N=C2/NC(=O)C(Cc3ccccc3)S2)ccc1O (stereo not drawn)	inactive: 13.5%
Cc1cccc(C(=O)NCC(=O)OCC(=O)c2ccc(C)s2)c1	inactive: -0.729%
CN(C(=O)c1ccc(OC2CCN(CCc3ccccc3)CC2)cc1)C1CCOC1 (stereo not drawn)	inactive: 12.5%

SMILES	growth rescue (activation)
CC(=O)NCCNC(=O)CNC(=O)c1ccc(Cl)cc1	inactive: -16.9%
CN1C[C@@H](CO)O[C@@H](n2cnc3c(N4CCN(CCO)CC4)ncnc32)C1	inactive: 2.23%
COc1ccc(C2C(C#N)=C(N)OC3=C2C(=O)CCC3)cc1OC (stereo not drawn)	inactive: -13.1%
CC(/C=N/NC(=O)c1nnn(-c2nonc2N)c1CN(C)C)=C\c1ccco1	inactive: -15.3%
CC1(C(=O)O)CCCN(C(=O)c2ccc(F)cc2Cl)C1 (stereo not drawn)	inactive: 16.7%
CN1C(=O)C(CC(=O)Nc2ccccc2F)N(NC(=O)c2ccc(Br)cc2)C1=S (stereo not drawn)	inactive: 8.27%
CCN(CC)S(=O)(=O)c1ccc2c(c1)nc(CCC(=O)Nc1ccc3c(c1)OCO3)n2C	inactive: -3.86%
Cn1c(N)c(C(=O)COC(=O)CCC(=O)c2ccc(F)cc2)c(=O)n(C)c1=O	inactive: 9.92%
NC(=O)CSc1ncc(-c2ccc([N+](=O)[O-])cc2)[nH]1	inactive: 5.85%
O=C(/C(=N/N=C/c1ccc(O)c(O)c1)c1ccccc1)c1ccccc1	inactive: -89.5%
CC(C)OCCCNC(=O)Cc1ccc(Br)cc1	inactive: 2.02%
Cc1ccc(N(C(=O)c2snc(C(N)=O)c2N)C(C(=O)NC2CCCC2)c2ccco2)cc1 (stereo not drawn)	inactive: -8.44%
COc1cccc(/C=C(/C(=O)OCC(=O)NC2CCCC(C)C2C)c2ccccc2)c1 (stereo not drawn)	inactive: 0.146%
COc1ccccc1N1CCN(c2ncc(C(=O)N3CCN(c4cccc(Cl)c4)CC3)c3ccccc23)CC1	inactive: -16.1%
COc1ccc2c(c1)C(C)CC(C)(C)N2C(=O)NC1CCCCC1 (stereo not drawn)	inactive: -13.4%
CN1/C(=C\C=N\O)C(C)(C)c2ccccc21	inactive: -6.42%
CCc1ccccc1N=C1S/C(=C/c2ccccc2OCC(=O)N2CCOCC2)C(=O)N1C	inactive: 17.1%
O=C(C1CCCC1)N1CCN(S(=O)(=O)c2cccc(Cl)c2Cl)CC1	inactive: -4.95%
O=C(CN1C(=O)CNC1=O)Nc1cc(Cl)cc(Cl)c1	inactive: -16.8%
Cc1[nH]c(=O)[nH]c(=O)c1S(=O)(=O)N1CCC(C(=O)N2CCN(c3cccc(C(F)(F)F)c3)CC2)CC1	inactive: -0.756%
Cc1ccc(C(=O)NC(C)CCc2ccccc2)cc1S(=O)(=O)N1CCOCC1 (stereo not drawn)	inactive: 29.6%
CC(C)(C)C1CCC(=NNc2nc3ccccc3[nH]2)CC1 (stereo not drawn)	inactive: -1.96%

SMILES	growth rescue (activation)
Cc1cc(NC(=O)c2n[nH]c(=O)c3ccccc23)ccc1Br	inactive: 5.8%
CN(CC(=O)Nc1ccc(F)c(F)c1F)C(=O)c1ccc(N2CCCC2=O)cc1	inactive: -6.37%
C=CCc1cccc(CNn2cnnc2)c1O	inactive: 10.7%
Cc1ccc(/C=N/NC(=O)c2cccs2)o1	inactive: -13%
O=C(COc1cccc(Cl)c1)Nc1ccc2c(c1)CCC2	inactive: 8.78%
CCCS(=O)(=O)NC(=O)C1(C)CCCN(C(=O)c2cc3ccccc3s2)C1 (stereo not drawn)	inactive: -2.46%
COC(=O)c1sccc1NC(=O)c1ccc(OC)cc1OC	inactive: 11.8%
O=C(CCn1nc(-c2ccc(Cl)cc2)c2ccccc2c1=O)Nc1cccnc1	inactive: 12.5%
Cc1cccc(C)c1NC(=S)N1CCC(c2ccccc2)C1 (stereo not drawn)	inactive: -2.51%
CC(=O)c1ccc(S(=O)(=O)N(C)CCCC(=O)N(C)Cc2ccccc2F)cc1	inactive: -1.87%
Cc1ccc(S(=O)(=O)NN2C(=O)c3ccccc3NC2c2ccccc2O)cc1 (stereo not drawn)	inactive: 3.83%
CC(=O)Nc1ccc(S(=O)(=O)c2ccc(C)cc2)cc1	inactive: 21.4%
O=C(COC(=O)c1cccc(S(=O)(=O)N2CCOCC2)c1)NCc1ccccc1	inactive: 12.5%
COc1ccc(C(O)c2ncc(-c3ccccc3OC)[nH]2)cc1 (stereo not drawn)	inactive: 8.12%
O=C1c2ccccc2S(=O)(=O)N1Cc1c(F)cccc1Cl	inactive: 10.3%
CCOC(=O)C1(Cc2cccc(F)c2)CCN(CC2CC2)CC1	inactive: 8.67%
COc1cc(OC)cc(C(=O)/C=C2\Sc3ccccc3N2C)c1	inactive: -0.204%
CCCN1C(=O)/C(=C/c2ccncc2)SC1=S	inactive: 6.88%
COc1cc(-c2csc(NC3CCCCC3)n2)cc(OC)c1OC	inactive: 2.55%
COc1ccc(NC(=O)N2CCN(c3ccc([N+](=O)[O-])cc3)CC2)cc1OC	inactive: 14.5%
